According to the supplement of paper PMC8728848:
The other results are listed elsewhere or left out.

Tests used:
Test in all cases: glycan array binding signal (z-score within array); higher = stronger binding
Conditions in all cases: glycan notation: IUPAC condensed, linker removed
[1] = target: Neu5Ac(a2-3)Gal(b1-3)[Neu5Ac(a2-6)]GalNAc
Method in brief: (§1)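 Negative Z-scores can be read as non-binding. The Z-score is calculated within each array and then averaged across arrays of one protein sequence at different concentrations or buffers and across linkers. Arrays, 3228 in all, were curated from the Consortium for Functional Glycomics database and kept only where the protein sequence was available.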

Neu5Ac(a2-3)Gal(b1-4)Glc = target: Neu5Ac(a2-3)Gal(b1-4)Glc
Method in brief: as §1

[2] = target: Neu5Ac(a2-3)Gal(b1-4)GlcNAc
Method in brief: as §1

[3] = target: Neu5Ac(a2-3)Gal(b1-4)GlcNAc(b1-2)Man(a1-3)[Neu5Ac(a2-3)Gal(b1-4)GlcNAc(b1-2)Man(a1-6)]Man(b1-4)GlcNAc(b1-4)GlcNAc
Method in brief: as §1

[4] = target: Neu5Ac(a2-3)Gal(b1-4)GlcNAc(b1-3)Gal(b1-4)GlcNAc
Method in brief: as §1

[5] = target: Neu5Ac(a2-3)Gal(b1-4)GlcNAc(b1-3)Gal(b1-4)GlcNAc(b1-3)Gal(b1-4)GlcNAc
Method in brief: as §1

[6] = target: Neu5Ac(a2-3)Gal(b1-4)GlcNAc(b1-3)Gal(b1-4)[Fuc(a1-3)]GlcNAc
Method in brief: as §1

[7] = target: Neu5Ac(a2-3)Gal(b1-4)GlcNAc6S
Method in brief: as §1

[8] = target: Neu5Ac(a2-3)Gal(b1-4)[Fuc(a1-3)]GlcNAc
Method in brief: as §1

[9] = target: Neu5Ac(a2-3)Gal(b1-4)[Fuc(a1-3)]GlcNAc(b1-3)Gal
Method in brief: as §1

[10] = target: Neu5Ac(a2-3)Gal(b1-4)[Fuc(a1-3)]GlcNAc(b1-3)Gal(b1-4)GlcNAc
Method in brief: as §1

[11] = target: Neu5Ac(a2-3)Gal(b1-4)[Fuc(a1-3)]GlcNAc(b1-3)Gal(b1-4)[Fuc(a1-3)]GlcNAc(b1-3)Gal(b1-4)[Fuc(a1-3)]GlcNAc
Method in brief: as §1

[12] = target: Neu5Ac(a2-3)Gal(b1-4)[Fuc(a1-3)]GlcNAc6S
Method in brief: as §1

[13] = target: Neu5Ac(a2-3)Gal6S(b1-4)GlcNAc
Method in brief: as §1

[14] = target: Neu5Ac(a2-3)Gal6S(b1-4)[Fuc(a1-3)]GlcNAc
Method in brief: as §1

Neu5Ac(a2-3)GalNAc = target: Neu5Ac(a2-3)GalNAc
Method in brief: as §1

[15] = target: Neu5Ac(a2-3)GalNAc(b1-4)GlcNAc
Method in brief: as §1

[16] = target: Neu5Ac(a2-3)[GalNAc(b1-4)]Gal(b1-4)Glc
Method in brief: as §1

[17] = target: Neu5Ac(a2-3)[GalNAc(b1-4)]Gal(b1-4)GlcNAc
Method in brief: as §1

[18] = target: Neu5Ac(a2-3)[Neu5Ac(a2-6)]GalNAc
Method in brief: as §1

Neu5Ac(a2-6)Gal = target: Neu5Ac(a2-6)Gal
Method in brief: as §1

Neu5Ac(a2-6)Gal(b1-4)Glc = target: Neu5Ac(a2-6)Gal(b1-4)Glc
Method in brief: as §1

[19] = target: Neu5Ac(a2-6)Gal(b1-4)GlcNAc
Method in brief: as §1

[20] = target: Neu5Ac(a2-6)Gal(b1-4)GlcNAc(b1-3)Gal(b1-4)GlcNAc
Method in brief: as §1

[21] = target: Neu5Ac(a2-6)Gal(b1-4)GlcNAc(b1-3)Gal(b1-4)[Fuc(a1-3)]GlcNAc(b1-3)Gal(b1-4)[Fuc(a1-3)]GlcNAc
Method in brief: as §1

[22] = target: Neu5Ac(a2-6)Gal(b1-4)GlcNAc6S
Method in brief: as §1

Neu5Ac(a2-6)GalNAc = target: Neu5Ac(a2-6)GalNAc
Method in brief: as §1

[23] = target: Neu5Ac(a2-6)GalNAc(b1-4)GlcNAc
Method in brief: as §1

Neu5Ac(a2-8)Neu5Ac = target: Neu5Ac(a2-8)Neu5Ac
Method in brief: as §1

[24] = target: Neu5Ac(a2-8)Neu5Ac(a2-3)Gal(b1-4)Glc
Method in brief: as §1

[25] = target: Neu5Ac(a2-8)Neu5Ac(a2-3)[GalNAc(b1-4)]Gal(b1-4)Glc
Method in brief: as §1

[26] = target: Neu5Ac(a2-8)Neu5Ac(a2-8)Neu5Ac
Method in brief: as §1

[27] = target: Neu5Ac(a2-8)Neu5Ac(a2-8)Neu5Ac(a2-3)Gal(b1-4)Glc
Method in brief: as §1

[28] = target: Neu5Ac(a2-8)Neu5Ac(a2-8)Neu5Ac(a2-3)[GalNAc(b1-4)]Gal(b1-4)Glc
Method in brief: as §1

[29] = target: Neu5Ac(a2-8)Neu5Ac(a2-8)Neu5Ac(a2-8)Neu5Ac(a2-3)[GalNAc(b1-4)]Gal(b1-4)Glc
Method in brief: as §1

Neu5Ac(b1-6)GalNAc = target: Neu5Ac(b1-6)GalNAc
Method in brief: as §1

[30] = target: Neu5Ac(b2-6)Gal(b1-4)GlcNAc
Method in brief: as §1

[31] = target: Neu5Ac9Ac(a2-6)Gal(b1-4)GlcNAc
Method in brief: as §1

[32] = target: Neu5Gc(a2-3)Gal(b1-3)GlcNAc
Method in brief: as §1

[33] = target: Neu5Gc(a2-3)Gal(b1-3)[Fuc(a1-4)]GlcNAc
Method in brief: as §1

Neu5Gc(a2-3)Gal(b1-4)Glc = target: Neu5Gc(a2-3)Gal(b1-4)Glc
Method in brief: as §1

[34] = target: Neu5Gc(a2-3)Gal(b1-4)GlcNAc
Method in brief: as §1

[35] = target: Neu5Gc(a2-3)Gal(b1-4)[Fuc(a1-3)]GlcNAc
Method in brief: as §1

[36] = target: Neu5Gc(a2-6)Gal(b1-4)GlcNAc
Method in brief: as §1

Neu5Gc(a2-6)GalNAc = target: Neu5Gc(a2-6)GalNAc
Method in brief: as §1

B1: LKPARMA (Neurospora crassa) (protein)
chain: MSFHVTAEDARRIEVRDNRTILFARLRREDGEWNDASYELDQIIGNNDGHFQWGGGQNFTETAEDIRFHPKEGAAEQPILRARLRDCNGEFHDRDVNLTEIVENVNGEFQAKF
[1]
  glycan array binding signal (z-score): -0.251
Neu5Ac(a2-3)Gal(b1-4)Glc
  glycan array binding signal (z-score): 0.489
[2]
  glycan array binding signal (z-score): -0.253
[3]
  glycan array binding signal (z-score): -0.241
[4]
  glycan array binding signal (z-score): -0.235
[5]
  glycan array binding signal (z-score): -0.244
[6]
  glycan array binding signal (z-score): -0.253
[7]
  glycan array binding signal (z-score): -0.254
[8]
  glycan array binding signal (z-score): -0.251
[9]
  glycan array binding signal (z-score): -0.247
[10]
  glycan array binding signal (z-score): -0.14
[11]
  glycan array binding signal (z-score): -0.212
[12]
  glycan array binding signal (z-score): -0.25
[13]
  glycan array binding signal (z-score): -0.245
[14]
  glycan array binding signal (z-score): -0.252
Neu5Ac(a2-3)GalNAc
  glycan array binding signal (z-score): -0.246
[15]
  glycan array binding signal (z-score): -0.248
[16]
  glycan array binding signal (z-score): -0.252
[17]
  glycan array binding signal (z-score): -0.251
[18]
  glycan array binding signal (z-score): -0.247
Neu5Ac(a2-6)Gal
  glycan array binding signal (z-score): 0.009
Neu5Ac(a2-6)Gal(b1-4)Glc
  glycan array binding signal (z-score): -0.199
[19]
  glycan array binding signal (z-score): -0.249
[20]
  glycan array binding signal (z-score): -0.23
[21]
  glycan array binding signal (z-score): -0.19
[22]
  glycan array binding signal (z-score): -0.25
Neu5Ac(a2-6)GalNAc
  glycan array binding signal (z-score): -0.25
[23]
  glycan array binding signal (z-score): -0.252
Neu5Ac(a2-8)Neu5Ac
  glycan array binding signal (z-score): -0.253
[24]
  glycan array binding signal (z-score): -0.247
[25]
  glycan array binding signal (z-score): -0.248
[26]
  glycan array binding signal (z-score): -0.242
[27]
  glycan array binding signal (z-score): -0.249
[28]
  glycan array binding signal (z-score): -0.242
[29]
  glycan array binding signal (z-score): -0.248
Neu5Ac(b1-6)GalNAc
  glycan array binding signal (z-score): -0.247
[30]
  glycan array binding signal (z-score): -0.24
[31]
  glycan array binding signal (z-score): -0.251
[32]
  glycan array binding signal (z-score): -0.249
[33]
  glycan array binding signal (z-score): -0.251
Neu5Gc(a2-3)Gal(b1-4)Glc
  glycan array binding signal (z-score): -0.247
[34]
  glycan array binding signal (z-score): -0.25
[35]
  glycan array binding signal (z-score): -0.244
[36]
  glycan array binding signal (z-score): -0.252
Neu5Gc(a2-6)GalNAc
  glycan array binding signal (z-score): -0.034
